# Source: the supplement of paper PMC12645437, “Orthogonal IMiD-Degron Pairs Induce Selective Protein Degradation in Cells” (ACS Chemical Biology, 2025)
# The other results are listed elsewhere or left out.
# Target: no compound (DMSO)
# Assay: log2 fold change of degron read counts, EGFP-low vs EGFP+ sorted cells; higher = lower degron-EGFP level without compound (poor expression or instability)
# Conditions: compound: DMSO control; 18 h
# 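Also: jurkat cells carrying a lentiviral library of mutant zinc finger degrons fused to EGFP plus mCherry, mCherry+ cells FACS sorted, degron abundance counted by next-generation sequencing.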
row,Sequence,log2 fold change of degron read counts
1,FICDICGADFTQKGNLLRHIKL,-2.7
2,FACNQCGRNFTQKGNLLRHIKL,-0.255
3,FCCNICGAIFTQKGNLLRHIKL,0.519
4,FFCPICGAQFTQKGNLLRHIKL,0.271
5,FHCPICGAEFTQKGNLLRHIKL,-0.955
6,FYCNQCGRWFTQKGNLLRHIKL,1.25
7,FTCNVCGAYFTQKGNLLRHIKL,-0.168
8,FWCPVCGAEFTQKGNLLRHIKL,-0.485
9,FGCSVCGHAFTQKGNLLRHIKL,0.617
10,FKCNQCGREFTQKGNLLRHIKL,-1.86
11,FFCPICGHLFTQKGNLLRHIKL,0.698
12,FFCSVCGHGFTQKGNLLRHIKL,-0.123
13,FSCEICGRSFTQKGNLLRHIKL,-1.21
14,FCCPICGANFTQKGNLLRHIKL,-0.0675
15,FSCEICGHTFTQKGNLLRHIKL,-1.74
16,FQCNVCGAPFTQKGNLLRHIKL,-0.273
17,LVCEICGFTCTQKGNLLRHIKL,-0.764
18,FECEQCGAGFTQKGNLLRHIKL,-0.884
19,FICNQCGHSFTQKGNLLRHIKL,-0.591
20,FICPICGAGFTQKGNLLRHIKL,-0.334
21,FNCNQCGAAFTQKGNLLRHIKL,-1.09
22,LKCNQCGFRCTQKGNLLRHIKL,0.654
23,FHCPQCGAAFTQKGNLLRHIKL,-0.59
24,FNCNICGAGFTQKGNLLRHIKL,-0.743
25,FACPICGHCFTQKGNLLRHIKL,-0.321

row,Sequence,log2 fold change of degron read counts
1,FTCDQCGATFTQKGNLLRHIKL,-1.85
2,FLCDICGAHFTQKGNLLRHIKL,-1.47
3,FFCDICGAPFTQKGNLLRHIKL,-0.224
4,FYCEQCGADFTQKGNLLRHIKL,-1.72
5,FRCEICGAHFTQKGNLLRHIKL,-0.32
6,FACDQCGARFTQKGNLLRHIKL,-1.18
7,FTCNVCGATFTQKGNLLRHIKL,-1.01
8,FECPICGAIFTQKGNLLRHIKL,-0.373
9,FVCDQCGADFTQKGNLLRHIKL,-2.81
10,FECEVCGAAFTQKGNLLRHIKL,-1.59
11,FSCNVCGAGFTQKGNLLRHIKL,-0.975
12,FRCDQCGAWFTQKGNLLRHIKL,-0.158
13,FFCDICGAVFTQKGNLLRHIKL,-0.00247
14,LLCNQCGFKCTQKGNLLRHIKL,0.51
15,FFCNQCGRPFTQKGNLLRHIKL,0.75
16,FCCEICGARFTQKGNLLRHIKL,-1.55
17,FYCPICGATFTQKGNLLRHIKL,0.381
18,FCCPICGHKFTQKGNLLRHIKL,-0.949
19,FTCPICGAYFTQKGNLLRHIKL,0.44
20,FTCDVCGAWFTQKGNLLRHIKL,-1.55
21,FNCEICGAHFTQKGNLLRHIKL,-1.7
22,FSCEICGHPFTQKGNLLRHIKL,-0.975
23,FLCNVCGAHFTQKGNLLRHIKL,-0.555
24,FYCPVCGALFTQKGNLLRHIKL,0.802
25,FECNQCGAFFTQKGNLLRHIKL,-0.876
